Reference: article PMC12040169 (PLOS Biology, 2025)
The list shows a part of the results.

tested on: T1, C. trachomatis L2/434/Bu expressing GFP (CTL2-GFP); set-up: species or system HeLa; C. trachomatis total inclusion area by high-content imaging, normalised to DMSO; details: total inclusion area; 28.5 h, 10 µM; inhibitor
T1 construct: L2/434/Bu GFP intracellular growth in HeLa cells
Summary of the method: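 High-content images of fixed, Hoechst-stained infected cultures supply inclusion area and count (growth) plus nuclei number (viability), complementing bulk GFP/resorufin fluorescence. MIC determination is unchanged from the primary assay.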

SMILES	% of control remaining
Fc1ccc(-c2noc([C@@H]3CCCN3Cc3ncc[nH]3)n2)nc1 [CBK288897]	86.8939
CCOC(=O)c1c(NC(=O)c2cc(-c3ccc(Cl)s3)nc3ccccc23)sc(C)c1CC [CBK262657]	102.845
O=C1NC/C=C/CC2(CCN(Cc3ccc(Cl)cn3)CC2)C(=O)NCCOc2ccccc21 [CBK292008]	101.762
O=C(Nc1cc(Oc2cncc(Cl)c2)cc([N+](=O)[O-])c1)c1nn2c(C(F)(F)F)cc(-c3cccs3)nc2c1Cl [CBK262585]	80.9629
CCn1c(C)nc2cc(NC(=O)Cn3cnc4ccccc43)ccc21 [CBK281832]	96.8262
Cc1nn(CCC#N)c2nc(-c3ccc(F)cc3)cc(C(=O)O)c12 [CBK296974]	100.688
Cc1c(C(=O)N2CCCCC2C(N)=O)nnn1Cc1ccc(F)cc1F (stereo not drawn) [CBK304425]	52.2077
COCCN1CCN(c2cncc(-c3ccc(O)cc3)n2)CC1 [CBK126951T]	133.727
CC1(C)Cc2c(cnn2-c2ccc(F)cc2)C(N)C1 (stereo not drawn) [CBK288200]	56.201
Cc1ccc(-c2csc(CC#N)n2)cc1 [CBK047576]	68.7533
O=C(CC(CN1CCN(CC(=O)N2CCCC2)CC1)C(=O)O)Nc1ccccc1 (stereo not drawn) [CBK286844]	80.2724
O=C(NCc1cccnc1OCC(F)(F)F)c1ccc(=O)[nH]n1 [CBK305578]	78.7355
CC(C)(CO)Cn1c(=O)[nH]c2ncc(-c3ccc(C(N)=O)cc3)nc21 [CBK064787]	123.662
CC(CC(=O)C1C(C)C=CCC1(C)C)NNC(=O)c1ccccc1O (stereo not drawn) [CBK262980]	92.531
Clc1cc(CSc2nnnn2-c2ccccc2)cc2c1OCCCO2 [CBK297159]	78.9602
CNC(=O)NC(=O)C1CCN(CCOc2ccccc2)CC1 [CBK034959]	67.522
CC(C)NC(=O)c1cccc2c1CCCN2Cc1nc2ccccc2o1 [CBK295135]	115.62
O=C(CCN1CCOCC1)N/N=C\c1cccs1 [CBK005035]	101.739
COc1cc(NC(=O)COc2cc(C)cc(C)c2)c(C(=O)O)cc1OC [CBK268650]	119.501
Cc1nc2c(c(=O)[nH]1)CN(Cc1c(C)oc3ccccc13)CC2 [CBK283984]	94.5568
CCN(CC(=O)NC(C)C)Cc1csc(-c2ccc(F)cc2)n1 [CBK305849]	107.425

SMILES	% of control remaining
Cc1csc(NC(=O)CN2CC=C(c3ccc(C)o3)CC2)n1 [CBK283606]	115.157
Cc1cc(C(=O)Nc2ccccc2C(=O)O)ccc1NC(=O)CC(C)C [CBK263616]	90.0496
c1cncc(-c2ccc(N3CCN(CCN4CCCC4)CC3)nc2)c1 [CBK037661]	127.616
Cc1cccc(OCC(=O)Nc2sc3c(c2C(N)=O)CCC3)c1C [CBK269729]	105.12
C=CCn1c2ccccc2c2nnc(SC(CC)C(=O)N3c4ccccc4Sc4ccccc43)nc21 (stereo not drawn) [CBK263040]	101.895
O=C(O)CC1S/C(=N/N=C/c2ccc(-c3ccc(Cl)cc3[N+](=O)[O-])o2)NC1=O (stereo not drawn) [CBK264507]	89.7803
CSc1nc(O)c(C(c2ccc(Cl)cc2)c2c(O)nc(SC)nc2O)c(O)n1 [CBK265306]	111.092
CCNC(=O)N1CC2(CCN(Cc3ccc4nsnc4c3)CC2)c2ccccc21 [CBK136968]	89.0359
CC(C)CC1C(C#N)=C(N)Oc2n[nH]c(-c3cccs3)c21 (stereo not drawn) [CBK267449]	95.0446
Cc1cccc(NC(=S)N2CCN(Cc3ccc4c(c3)OCO4)CC2)c1C [CBK264919]	107.145
Clc1ccc(-c2cncc(NCCc3ccncc3)n2)cc1 [CBK065787]	103.254
Oc1ccc(Cn2cnc3ccccc32)c2cccnc12 [CBK291202]	46.2621
N#Cc1ccccc1Cn1cc(C(=O)C(N)=O)c2ccccc21 [CBK269862]	68.971
Cc1cc(C(=O)NCCn2ccnc2C)c2ccccc2n1 [CBK281895]	90.0041
O=C1CCN(Cc2ccccc2)CCN1C(=O)c1cccs1 [CBK284828]	95.2998
CC(C)Nc1nccnc1Sc1cccc2ccccc12 [CBK089493]	92.5918
CC(=O)N1CCN(c2ccc(NC(=O)C3C(C(=O)O)C3(C)C)cc2)CC1 (stereo not drawn) [CBK300545]	71.1779
O=C1CCN(C(=O)c2ccccn2)CCN1Cc1cccc(F)c1 [CBK284467]	99.798
O=S(=O)(Nc1nccnc1-c1cccs1)c1ccccc1Cl [CBK050775]	106.148
O=C(c1ccccc1F)N1CCC(n2cnc3cccnc32)CC1 [CBK283937]	78.6829
CSc1nc2ncnc(N3CCC(O)CC3)c2s1 [CBK022082]	101.045

SMILES	% of control remaining
COc1ccc2c(c1)CC(=O)NC21CCN(C(=O)CCCC(=O)O)CC1 [CBK047208]	104.843
COc1ccc(CN2CCN(C(=O)c3cccc(N(C)C)c3)CC2)cc1 [CBK305713]	52.8733
CC1CCN(c2nc(-c3ccccc3O)nc3ccccc23)CC1 [CBK066899]	92.741
O=C(Nc1ccc(-c2cccc(F)c2)cc1)c1ccccc1Cn1cncn1 [CBK285565]	95.9799
Cc1ccc(CSCCNC(=O)/C=C/c2ccccc2)cc1 [CBK263985]	104.147
CC(C)N(Cc1nc(-c2ccccc2)no1)C(=O)Nc1cccc(Cl)c1 [CBK269871]	87.7361
CCc1ncc2c(n1)CN(Cc1cc(=O)n3cccc(C)c3n1)CC2 [CBK305914]	53.6472
CCOC(=O)c1cnc2c(C)cc(Cl)cc2c1NCCN(C)C [CBK264800]	114.882
Nc1nc(CSc2nnc(-c3ccncc3)o2)nc(Nc2ccc(F)cc2)n1 [CBK266221]	109.104
Cc1nc(NS(=O)(=O)c2c(C)noc2C)sc1C(=O)O [CBK045562]	92.7764
O=C(c1ccccc1F)N1CCCC1c1n[nH]cc1-c1ccncc1 (stereo not drawn) [CBK283428]	124.725
COc1ccc(N2C(=O)C3C(CC(C)C)NC4(C(=O)N(CC(=O)Nc5ccc(C)cc5)c5ccccc54)C3C2=O)cc1 (stereo not drawn) [CBK266034]	111.015
COCCCn1c(=O)[nH]c2ncc(-c3cccc(/C=C/C(=O)O)c3)nc21 [CBK065107]	129.577
CCN(CC)CCNC(=O)c1cc(O)nc2ccccc12 [CBK269261]	66.1934
Cc1noc(C)c1Cn1cc(NS(=O)(=O)c2cccs2)cn1 [CBK044394]	103.898
COCCc1noc(CC2CCN(c3nc(C)cc(C#N)n3)CC2)n1 [CBK304179]	64.891
Cc1ccc(S(=O)(=O)N2CCN(c3ccc([N+](=O)[O-])c(N4CCN(C)CC4)c3)CC2)cc1 [CBK264795]	118.366
CCOC1CCCN(C(=O)c2cccnc2Nc2cccc(F)c2)C1 (stereo not drawn) [CBK305307]	81.6633
CCN(CC(=O)N1CCN(C(=O)c2ccc(C)cc2)CC1)C(=O)OC [CBK027051]	54.8771
NC(=O)CN1CC2(CCN(CCCn3c(=O)[nH]c4ccccc43)CC2)c2ccccc21 [CBK126787]	84.0606
Cc1ccc(C(=O)NCCC(=O)Nc2ccccc2C)cc1 [CBK268569]	101.453

SMILES	% of control remaining
CCCCn1nccc1NC(=O)NC(C)c1ccncc1 (stereo not drawn) [CBK304840]	14.7347
CC(=O)Nc1ccc(S(=O)(=O)NCCSc2ccc(C)cc2)cc1 [CBK263563]	74.1529
CCNc1nc(-c2ccc(Oc3ccccc3)cc2)cn2ccnc12 [CBK066467]	145.272
Cc1c(-n2nnnc2SC(C)c2ccccc2)c(=O)n(-c2ccccc2)n1C (stereo not drawn) [CBK295651]	75.4175
O=C(CSc1ncnc2c1oc1ccccc12)NC1CCCC1 [CBK287788]	58.9101
COc1cccc2cc(C(=O)NCc3ccc(Cl)c(Cl)c3)oc12 [CBK149795]	76.6073
Cn1c(=O)c2c(-c3ccccc3)onc2n(C)c1=O [CBK023569]	103.632
COC1C(O)C(CO)OC1n1cc(I)c(=O)[nH]c1=O (stereo not drawn) [CBK201211]	73.0467
O=C(NCc1cccs1)OCc1ccccc1 [CBK008074]	51.7211
Cc1cc(=O)n2c(c1C#N)SCC2 [CBK027807]	51.2339
O=c1[nH]c2ncc(-c3cccc4ncccc34)nc2n1CCCO [CBK065060]	109.405
Cc1ccc(C(=O)N/C(=C\c2cccc([N+](=O)[O-])c2)C(=O)NC2CCCCC2)cc1 [CBK261407]	96.3657
Nc1nc2c(cc1C(=O)NCc1ccccc1)CN(C(=O)CCCc1ccc(F)cc1)CC2 [CBK285887]	93.525
COc1ccc(C(=O)NCC(=O)NCCOC(=O)c2c(-c3c(F)cccc3Cl)noc2C)cc1 [CBK007386]	116.5
COCCC(=O)NC(Cc1cccs1)c1nccs1 (stereo not drawn) [CBK282180]	101.509
CN(C)C(=O)c1ccc(Cn2nc(NC(=O)OCc3ccccc3)c3ccccc32)cc1 [CBK048578]	102.832
Cc1c(S(=O)(=O)Nc2ccc3nsnc3c2)cnn1-c1ccccc1 [CBK062229]	87.4445
Cn1nccc1NS(=O)(=O)c1ccc(-c2cc(C(F)(F)F)on2)s1 [CBK062087]	92.5617
